Residue numbers refer to the chain shown, from its start. The list shows a part of the results.
B1: CUAUCUU (DNA:RNA)
RNA: GGGAGACCGGAAUUCAGAUUGUCCCUAUCUUUUAAAUCCCGUCGUAGCCACCA
DNA 1: CAATCTGAATTCCGGTCTCCC
DNA 2: TGGTGGCTACGACGGGATT
B2: UAAGGCA (DNA:RNA)
RNA: B1 RNA with C25U, U26A, U28G, C29G, U30C, U31A
DNA 1: CAATCTGAATTCCGGTCTCCC
DNA 2: TGGTGGCTACGACGGGATT
B3: UACAUAC (DNA:RNA)
RNA: GGGAGACCGGAAUUCAGAUUGUCCUACAUACUUAAAUCCCGUCGUAGCCACCA
DNA 1: CAATCTGAATTCCGGTCTCCC
DNA 2: TGGTGGCTACGACGGGATT
B4: GCCGCAA (DNA:RNA)
RNA: B3 RNA with U25G, A26C, A28G, U29C, C31A
DNA 1: CAATCTGAATTCCGGTCTCCC
DNA 2: TGGTGGCTACGACGGGATT
B5: AAGGAGG (DNA:RNA)
RNA: B3 RNA with U25A, C27G, A28G, U29A, A30G, C31G
DNA 1: CAATCTGAATTCCGGTCTCCC
DNA 2: TGGTGGCTACGACGGGATT
B6: CUAUAGC (DNA:RNA)
RNA: B1 RNA with C29A, U30G, U31C
DNA 1: CAATCTGAATTCCGGTCTCCC
DNA 2: TGGTGGCTACGACGGGATT
B7: AUAUACG (DNA:RNA)
RNA: B1 RNA with C25A, C29A, U30C, U31G
DNA 1: CAATCTGAATTCCGGTCTCCC
DNA 2: TGGTGGCTACGACGGGATT
B8: UUGCGGA (DNA:RNA)
RNA: B1 RNA with C25U, A27G, U28C, C29G, U30G, U31A
DNA 1: CAATCTGAATTCCGGTCTCCC
DNA 2: TGGTGGCTACGACGGGATT
B9: CUACGCU (DNA:RNA)
RNA: B1 RNA with U28C, C29G, U30C
DNA 1: CAATCTGAATTCCGGTCTCCC
DNA 2: TGGTGGCTACGACGGGATT

The binders below were run against T1, RBFOX1 RRM RbFoxmut (Fox-RRM*) (Homo sapiens, UniProt Q9NWB1 109-208, R118D;E147R;N151S;E152T) (assay: EMSA; HiTS-Eq, 1 nM pool, 10 min; buffer printed only for the single-RNA assays: 10 mM Tris pH 7.5, 150 mM NaCl, 3.4 mM EDTA, 0.001% NP-40, 30 C). Details: tags: His6 N-terminal (pET28a); label: 5' 32P.
T1 sequence: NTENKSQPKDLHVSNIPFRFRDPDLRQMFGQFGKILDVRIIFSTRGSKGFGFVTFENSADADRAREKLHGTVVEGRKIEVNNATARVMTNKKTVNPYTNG
Method in brief: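 Purified wild-type or mutant RbFox RRM at increasing concentrations was equilibrated with 1 nM of 5′-radiolabelled RNA carrying 7 randomized nucleotides for 10 min in 50 µL. Unbound RNA was separated by 8% native PAGE and sequenced. Relative association constants came from read-count changes of each RNA species compared with the control reaction, normalised to the cognate motif.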

| Binder | binding signal |
| --- | --- |
| B1 | 0.0729 KA relative to UGCAUGU |
| B2 | 0.0856 KA relative to UGCAUGU |
| B3 | 0.0661 KA relative to UGCAUGU |
| B4 | 0.0714 KA relative to UGCAUGU |
| B5 | 0.0963 KA relative to UGCAUGU |
| B6 | 0.0868 KA relative to UGCAUGU |
| B7 | 0.159 KA relative to UGCAUGU |
| B8 | 0.0904 KA relative to UGCAUGU |
| B9 | 0.105 KA relative to UGCAUGU |

— article PMC9911399, “Two distinct binding modes provide the RNA-binding protein RbFox with extraordinary sequence specificity”
